Out of some 150,000 compounds screened, about 6,500 (4.3%) were called active. The inconclusive results got no clear call from the source; some entries with a clear call stand among them for comparison. Calls follow the shape of the dose curve; as a rule, active = well fitted inhibition curve with a large enough effect (not every such curve was filed as active); inconclusive = small, poorly fitted or top-dose-only effect, or another doubt; inactive = no such curve, though single readings can be large or run the other way. No potency is given beside an inconclusive call; the fits are too rough.
These compounds were tested against 15-hydroxyprostaglandin dehydrogenase [NAD(+)] (Homo sapiens) (UniProt P15428) (assay: qHTS Assay for Inhibitors of HPGD (15-Hydroxyprostaglandin Dehydrogenase)). Conditions: purified HPGD, NADH fluorescence kinetic, PGE2 substrate; activity change, negative = inhibition: stronger effect = lower value.
Summary of the method: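 NADH formation kinetics: reaction with 30 uM PGE2 and 1 mM NAD+ (final), 20 nM enzyme, Tris-HCl pH 8 with Tween 20, after 15 min compound preincubation at room temperature. Fluorescence change, last versus first of five reads.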
% is scaled to controls: 0 for no effect and ±100 for the full control effect; potency is read from the fitted curve at half-maximal effect; tags tell the direction and shape of the fitted curve.

UniProt P15428, sequence (P15428 whole entry, looked up): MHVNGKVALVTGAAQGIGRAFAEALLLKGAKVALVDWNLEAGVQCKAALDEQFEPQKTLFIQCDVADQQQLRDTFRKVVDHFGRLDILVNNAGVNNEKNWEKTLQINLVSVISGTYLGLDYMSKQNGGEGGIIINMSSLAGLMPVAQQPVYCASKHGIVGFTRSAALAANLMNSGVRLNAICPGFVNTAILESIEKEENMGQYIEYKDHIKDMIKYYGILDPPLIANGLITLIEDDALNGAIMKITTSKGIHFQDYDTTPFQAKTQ

SMILES	Potency	activity change, negative = inhibition
CCCC1OC23CCCCC2C(C#N)(C(=N)O3)C1(C#N)C#N (configuration not stated)	inconclusive [inhibitor, partial curve]	
COC(=O)c1ccc2c(=O)n(Cc3ccc(C(=O)NC4CCCC4)cc3)c(=S)[nH]c2c1	inconclusive [inhibitor, full curve, poor fit]	
Cc1nc2c(c3c1[nH]c1ccccc13)C(=O)CC(C)(C)C2	inconclusive [inhibitor, partial curve]	
Cc1ccc(-c2cc(C(=O)N3CCCC3)no2)cc1	inconclusive [inhibitor, partial curve]	
Cc1nc(NCc2ccccc2)c2nc(-c3ccccc3)n(CC(C)(C)CN(C)C)c2n1	inconclusive [inhibitor, partial curve]	
O=C(O)[C@H]1CC=CC[C@@H]1C(=O)Nc1cccc(O)c1		inactive: -7.97%
Cc1cccn2c(=O)c(C=Nc3ccc(Cl)cc3)c(NCCO)nc12	inconclusive [inhibitor, partial curve]	
CC(C)CC(=O)NC(=S)Nc1ccc(NC(=O)c2ccco2)cc1	active: 14.1 µM	
CC(C)(C)NC(=O)NC(=O)COC(=O)c1nc(-c2ccccc2)n(-c2cccc(C(F)(F)F)c2)n1		inactive: -18.2%
O=C1CSc2ccccc2N1Cc1ccccc1F		inactive: -31%
O=C(NCc1ccco1)c1ccc(Oc2ccccc2)cc1	active: 28.2 µM	
CSc1ccc(CNc2cccc3ccccc23)cc1	inconclusive [inhibitor, partial curve]	
COc1ccccc1-c1c(C)nn2c(N3CCN(Cc4ccccc4)CC3)cc(C)nc12	inconclusive [inhibitor, partial curve]	
Cc1ccc(C2C3=C(CC(C)(C)CC3=O)NC3=C2C(=O)c2ccccc23)cc1 (configuration not stated)		inactive: -2.06%
COc1ccc(C(CC(=O)O)NC(=O)c2sc3ccccc3c2Cl)cc1 (configuration not stated)	inconclusive [inhibitor, partial curve]	
CC[C@@H]1C(c2cccc(C)c2)=NN(c2ccccc2)[C@H]1C(=O)N1CCOC1=O	inconclusive [inhibitor, partial curve]	
CCCc1nn2c(N)c(/C=C3\C=Nc4ccccc43)c(=O)nc2s1		inactive: -9.64%
O=C(COc1ccc(Cl)cc1Cl)N1CCCN(C(=O)COc2ccc(Cl)cc2Cl)CC1		inactive: -0.452%
Cc1cc2nc(C)n(CCCNC(=O)Nc3ccc(C#N)cc3)c2cc1C		inactive: -3.95%
O=C(COc1ccc(Br)cc1Cl)NC1CCCCC1	active: 11.2 µM	
CC(=C/c1ccc(C(C)C)cc1)/C=N/NC(=O)CSc1ccccn1		inactive: -22.7%
CCOc1ccc(C(=O)Nc2ccc(NC(=O)c3ccco3)c(Cl)c2)cc1Cl	inconclusive [inhibitor, partial curve]	
CC(OC(=O)c1ccccc1Br)C(=O)Nc1nc(-c2cccc([N+](=O)[O-])c2)cs1 (configuration not stated)		inactive: -8.38%
Cc1cccc(CNc2cc(-c3ccccc3C)ncn2)c1	active: 15.8 µM	

SMILES	Potency	activity change, negative = inhibition
COc1ccc(-c2cc(=O)c3c(OC)c(OC)c(OC)c(OC)c3o2)cc1OC	inconclusive [inhibitor, partial curve]	
CCc1ccc(OCC(=O)NCc2ccco2)c(Br)c1	active: 35.5 µM	
N#Cc1cc(-c2ccc(Cl)cc2)cn(Cc2c(Cl)cccc2Cl)c1=O	inconclusive [inhibitor, partial curve]	
O=C(CCc1nc2ccccc2s1)c1ccccc1	inconclusive [inhibitor, partial curve]	
CCCCCCn1cnc2c(c1=O)c1nc3ccccc3nc1n2/N=C/c1ccco1		inactive: -23.2%
COc1ccc(S(=O)(=O)NC(C)C(=O)O)cc1 (configuration not stated)		inactive: -9.48%
CCOc1ccc(CCNC(=O)C2CCN(c3ccc(N4CCOCC4)nn3)CC2)cc1OCC	inconclusive [inhibitor, partial curve]	
CC(NC(=O)/C(C#N)=C/c1cn(-c2ccccc2)nc1-c1ccc(F)cc1)c1ccccc1 (configuration not stated)	inconclusive [inhibitor, single point]	
Cc1cccc(NC(=S)N/N=C/c2ccc3c(c2)OCO3)c1	inconclusive [inhibitor, partial curve]	
CC(C)c1cc(=O)oc2c3c4c(cc12)CCCN4CCC3	inconclusive [inhibitor, partial curve]	
CCOC(=O)c1c(-c2ccccc2)csc1NC(=O)c1ccc(S(=O)(=O)N2CCOCC2)cc1	inconclusive [inhibitor, partial curve]	
O=C(NCc1ccc2c(c1)OCO2)C1CCN(c2ccc(S(=O)(=O)N3CCCC3)cc2)CC1	inconclusive [inhibitor, partial curve]	
CCN(C(=O)COC(=O)c1cccnc1Nc1cccc(C(F)(F)F)c1)C1CCS(=O)(=O)C1 (configuration not stated)	inconclusive [inhibitor, partial curve]	
C=CCn1c(C(c2ccccc2)c2ccccc2)n[nH]c1=S	active: 25.1 µM	
Cn1c(C(=O)NCCN2CCOCC2)cc2c(=O)n(C)c3ccccc3c21	inconclusive [inhibitor, partial curve]	
COc1ccc(N2C(=O)CCC(C(=O)NCc3ccccn3)C2c2ccc(F)cc2)cc1 (configuration not stated)		inactive: 0.934%
Cc1ccc2[nH]c(C(=O)O)c(-c3ccccc3)c2c1	inconclusive [inhibitor, partial curve]	
COc1ccccc1OCC(=O)NCC1CCCCC1	inconclusive [inhibitor, partial curve]	
S=C(NCc1ccc(Cl)cc1Cl)NC1CCCCC1	inconclusive [inhibitor, partial curve]	
O=C(CCN1C(=O)c2ccccc2C1=O)N(CCO)Cc1ccccc1		inactive: -9.57%
CC1(C)Cc2c(C#N)c(SCC(=O)c3ccccc3)nc(N3CCOCC3)c2CO1	inconclusive [inhibitor, partial curve]	
O=C1CC(c2ccccc2)CN1Cc1ccccc1 (configuration not stated)	inconclusive [inhibitor, single point]	
Cc1ccccc1NC(=O)Cn1nnc(-c2ccc(N3CCOCC3)cc2)n1	inconclusive [inhibitor, partial curve]	
CCCC(=O)NC(=S)Nc1sc2c(c1C(N)=O)CCC2	active: 25.1 µM	

SMILES	Potency	activity change, negative = inhibition
COc1ccc(N=NC2=C(O)CC(C)(C)CC2=O)cc1	active: 31.6 µM	
Cc1cc(NC(=O)c2cc(S(=O)(=O)N3CCCCC3)ccc2C)n(-c2ccccn2)n1	inconclusive [inhibitor, single point]	
S=C(N=Nc1ccccc1)NNc1ccccc1	inconclusive [inhibitor, partial curve]	
O=C(CCl)NC(=O)NC12CC3CC(CC(C3)C1)C2		inactive: -9.04%
COC(=O)N/N=C(\C)c1ccccc1Br		inactive: -8.04%
COc1ccc(-c2cc3ccccc3c(=O)o2)cc1	inconclusive [inhibitor, partial curve]	
CCCOc1ccc(C(=O)CCNc2ccc(C)c(Cl)c2)cc1		inactive: -5.41%
O=S(=O)(c1cccc(C(F)(F)F)c1)N1c2ccccc2-n2cccc2[C@H]1c1cccnc1		inactive: -24.2%
O=C1CCCC(O)=C1C=Nc1ccc(O)cc1	inconclusive [inhibitor, partial curve]	
COc1ccc(C)c(S(=O)(=O)Nc2ccc(OCC(=O)O)cc2)c1		inactive: -11.5%
COc1ccc(C(c2sc3nc(C)nn3c2O)N2CCc3ccccc3C2)cc1 (configuration not stated)	active: 22.4 µM	
COc1ccc(C(C(=O)NC2CCCC2)N(CCN2CCOCC2)C(=O)c2ccc(OC)c(OC)c2)cc1 (configuration not stated)		inactive: -1.04%
CCCCN(C)Cc1c(O)ccc2c(-c3ccccc3)cc(=O)oc12	inconclusive [inhibitor, single point]	
CCCCC12CN3CCN(CC(C3)/C1=N\NC(=O)c1ccccc1N)C2	inconclusive [inhibitor, partial curve]	
CCc1nc(SCC(=O)c2ccc(Cl)s2)c2oc3ccccc3c2n1	inconclusive [inhibitor, partial curve]	
Cn1c2ccccc2c2c(C(=O)N3CCN(c4ccc(F)cc4)CC3)cn(C3CCCC3)c(=O)c21	inconclusive [inhibitor, single point]	
CC(C)c1nnc(NC(=O)CCS(=O)(=O)c2nc(-c3cccs3)cc(C(F)(F)F)n2)s1	inconclusive [inhibitor, partial curve]	
Cc1cc(C)nc(NS(=O)(=O)c2ccc(N=Cc3c(C)[nH]n(-c4ccccc4)c3=O)cc2)n1		inactive: -18.7%
CC1=C(C(=O)N2CCOCC2)C(c2ccsc2)C2=C(CCCC2=O)N1 (configuration not stated)	inconclusive [inhibitor, partial curve]	
Nc1nc(SCc2ccccc2[N+](=O)[O-])c2[nH]cnc2n1		inactive: -2.4%
CCC(C)Oc1cccc(OCCCCN2C(=O)NC(C)(C)C2=O)c1 (configuration not stated)		inactive: -8.3%
O=C(C1CCN(Cc2ccc(F)cc2)CC1)N(CCc1ccccc1)Cc1ccccc1		inactive: -10.3%
CC1CCN(c2ncnc3c2cnn3-c2ccccc2)CC1	active: 28.2 µM	
Cc1cc(NCC2CCCO2)n2c(nc3ccccc32)c1C#N (configuration not stated)	inconclusive [inhibitor, partial curve]	

From PubChem BioAssay AID894 (National Center for Advancing Translational Sciences (NCATS), 2007)
